Results from the supplement of paper PMC10126150.
Sequences with one replicate were seen in a single cluster, so their values are uncertain.

Tested on: ATP
Experiment: switch fluorescence ratio, 500 uM ATP over buffer (Cy3 cluster intensity, sum of 5 cycles each) (fold (ratio)); higher = stronger signal-on switching upon ATP binding; sequences stand for … in TCGTCGGCAGCGTCAGATGTGTATAAGAGACAGTTTTTTTTTTTTTTTTTTTTTTTTT…TC
Conditions: aptamer strand: ATP DNA aptamer (quencher-CACCTGGGGGAGTATTGCGGAGGAAGG + anchor), 100 nM annealed; ATP concentration: 500 uM; one replicate
Procedure, shortened: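 For every switch-domain sequence, the fluorescence ratio is the mean of per-cluster values, each being summed target-cycle Cy3 intensity over summed buffer-cycle Cy3 intensity. Clusters outside 100-1000 RFU were excluded. On a modified Illumina MiSeq flow-cell, the Cy3-labelled switching-strand clusters were annealed to 100 nM quencher-labelled ATP aptamer, imaged in selection buffer and then after 15 min with 500 uM ATP at 22 °C. Five such cycles were run, with NaOH stripping and re-annealing between them.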
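Further: ATP exposure 15 min at 22 °C before imaging.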

GTCCTCTCGA
switch fluorescence ratio: 1.07

TCGAGCTTCT
switch fluorescence ratio: 1.02

CCTACATTGC
switch fluorescence ratio: 1.88

GTGGGAAAGC
switch fluorescence ratio: 0.997

TGTCACCGG
switch fluorescence ratio: 1.04

GACGGGAAGC
switch fluorescence ratio: 1.01

GGCGTGCTGG
switch fluorescence ratio: 0.998

ATTTCTTATA
switch fluorescence ratio: 1.03

ACAGGTTATC
switch fluorescence ratio: 1.02

TATAATTAAG
switch fluorescence ratio: 0.991

GGCTGCCGAC
switch fluorescence ratio: 1.04

GACTATGGCA
switch fluorescence ratio: 0.956

TGTCAAATCT
switch fluorescence ratio: 0.998

TCAGCGGAAA
switch fluorescence ratio: 1.06

CGTTCGAATG
switch fluorescence ratio: 1.03

CTTGAATATT
switch fluorescence ratio: 1.04

AAACCGATAC
switch fluorescence ratio: 2.78

GAGTGGAAG
switch fluorescence ratio: 0.972

CGCACTGGTG
switch fluorescence ratio: 2.08

CTTTCGGATT
switch fluorescence ratio: 0.98

GAGTTGCGCT
switch fluorescence ratio: 1.02

GTTCTCGGGG
switch fluorescence ratio: 0.984

GAATCCTGCT
switch fluorescence ratio: 1.03

CACCTTATAA
switch fluorescence ratio: 1.03

CGAAGCTATT
switch fluorescence ratio: 2.5

CACTGTGTGT
switch fluorescence ratio: 0.99

TTAGTTACGC
switch fluorescence ratio: 1.01

CCCTGAAACT
switch fluorescence ratio: 1.04

TGGTACGACC
switch fluorescence ratio: 1.14

TTAGTAAAGC
switch fluorescence ratio: 0.956

TGAACTGTCT
switch fluorescence ratio: 1.48

CTTTTAACT
switch fluorescence ratio: 0.995

GCAAGCAATA
switch fluorescence ratio: 3.44

ATACGATTAT
switch fluorescence ratio: 1.03

AGATTCATCT
switch fluorescence ratio: 1.01

ATAATATTAA
switch fluorescence ratio: 0.986

CTGCACGAGA
switch fluorescence ratio: 1.02

CATGCCGAGC
switch fluorescence ratio: 1.07

CCTAGGTCCC
switch fluorescence ratio: 1.01

GATTGCTGAA
switch fluorescence ratio: 0.992

GAGTGAGAG
switch fluorescence ratio: 1.04

ACGGTTAGGA
switch fluorescence ratio: 0.944

AAAATGGAA
switch fluorescence ratio: 0.954

CCTTTCAGCA
switch fluorescence ratio: 1.93

CCGATTTAGC
switch fluorescence ratio: 1.24

TCAAACGTGT
switch fluorescence ratio: 0.957

CAGTTTATTG
switch fluorescence ratio: 0.975

AATCTATATG
switch fluorescence ratio: 1.02

TAGGTGTATC
switch fluorescence ratio: 1.05

ACAGGAAAGT
switch fluorescence ratio: 1.01

GTCTATATAT
switch fluorescence ratio: 0.997

CTCTGTATCA
switch fluorescence ratio: 1.04

TAACAATTAT
switch fluorescence ratio: 0.996

ACGTTACCAT
switch fluorescence ratio: 1.32

CATCTAGGAG
switch fluorescence ratio: 1.02

AATGCTCCCT
switch fluorescence ratio: 1.76

GAGGAATTCC
switch fluorescence ratio: 1.03

TCGCGGATGG
switch fluorescence ratio: 1.01

ATCGAAAATA
switch fluorescence ratio: 1.04

GATTGGTTGA
switch fluorescence ratio: 0.977

CTCGGTACAA
switch fluorescence ratio: 1.13

AGTTAGATGG
switch fluorescence ratio: 1

AATTCGGGAT
switch fluorescence ratio: 0.991

TCGGTAACCT
switch fluorescence ratio: 1.49

TACCGAACCA
switch fluorescence ratio: 1.15

ACGGCAGACA
switch fluorescence ratio: 1.06

GTGTAAGGTG
switch fluorescence ratio: 1.19

CAACTGTTGA
switch fluorescence ratio: 1.02

GGCCGCTCGA
switch fluorescence ratio: 1.03

CCAATCTAGA
switch fluorescence ratio: 0.996

TCGAAATGCG
switch fluorescence ratio: 0.994

TGTAACATGT
switch fluorescence ratio: 0.997

GAGGCTAACA
switch fluorescence ratio: 0.98

TAAGCGGACT
switch fluorescence ratio: 1.02

TGCTAGCAAG
switch fluorescence ratio: 1.04

TTCGGCC
switch fluorescence ratio: 1

AAGAGATGGA
switch fluorescence ratio: 1.04

AATTATGTA
switch fluorescence ratio: 1.05

AATTGAACCG
switch fluorescence ratio: 1.06

ACGTTTATGC
switch fluorescence ratio: 1.13

ATAACCGTTA
switch fluorescence ratio: 1.03

CGCTCCTAAG
switch fluorescence ratio: 1.04

TGAGCTATTT
switch fluorescence ratio: 0.965

ACTCATCTAA
switch fluorescence ratio: 1.05

CACAGCATAT
switch fluorescence ratio: 1.86

ACGTGAGGA
switch fluorescence ratio: 1.03

CGACTGCGGG
switch fluorescence ratio: 1.03

AAGCAGAGTG
switch fluorescence ratio: 1.01

TTCTCTGTGC
switch fluorescence ratio: 1.4

AGTGTCCGGA
switch fluorescence ratio: 1.05

TGCACGGCGA
switch fluorescence ratio: 1.06

CTATTAACAC
switch fluorescence ratio: 1.01

TCAGAGCTTC
switch fluorescence ratio: 1.02

AATTTGAGT
switch fluorescence ratio: 0.981

ACATGGGACG
switch fluorescence ratio: 0.997

CAAAGGGTCA
switch fluorescence ratio: 0.979

GCGACACGAA
switch fluorescence ratio: 1.13

CGTGATTTAA
switch fluorescence ratio: 1.05

ATGAATAGGT
switch fluorescence ratio: 1

ATAGGTATGG
switch fluorescence ratio: 0.944

ATCCTGCTCG
switch fluorescence ratio: 1.02

CAGTCCACC
switch fluorescence ratio: 1.02

TCGAAATTT
switch fluorescence ratio: 1.16

ACCGCGATGG
switch fluorescence ratio: 4.05

CCACTGCGGT
switch fluorescence ratio: 1.81

GAATTTCAA
switch fluorescence ratio: 0.982

AAACACCAGC
switch fluorescence ratio: 1.26

GCACACAGGT
switch fluorescence ratio: 1.62

CCCTTGAACA
switch fluorescence ratio: 1.02

GCAGATGGCT
switch fluorescence ratio: 1.05

ACTGCTTCCG
switch fluorescence ratio: 1.2

CCATCTGTGC
switch fluorescence ratio: 1.09

TTTATTGATA
switch fluorescence ratio: 1.02

ATGCCTATGC
switch fluorescence ratio: 1.02

AGCACCGGCG
switch fluorescence ratio: 1.03

GGCCGGGGAT
switch fluorescence ratio: 1.01

CTCGGGCGAG
switch fluorescence ratio: 1

TTAGTTGTTG
switch fluorescence ratio: 0.961

AGGGCTAATT
switch fluorescence ratio: 1.01

GCGTCCTCGT
switch fluorescence ratio: 0.985

GAAGTGAGTC
switch fluorescence ratio: 0.978

CCCCTATGCA
switch fluorescence ratio: 1.14

TTGTATACGA
switch fluorescence ratio: 1.01

CGAGACCAAT
switch fluorescence ratio: 1.09

TCGGCAAGTA
switch fluorescence ratio: 1.02

AGACAAGGTG
switch fluorescence ratio: 1.04

ATAGATATTT
switch fluorescence ratio: 1.01

TCTCTATATC
switch fluorescence ratio: 1.06

GAGGGAGCTG
switch fluorescence ratio: 0.958

CCTTACAACA
switch fluorescence ratio: 1.04

TGTCGTCCGT
switch fluorescence ratio: 0.972

AAACTTACTA
switch fluorescence ratio: 1.1

TACTAGTTTG
switch fluorescence ratio: 1.01

GATAAGTCTG
switch fluorescence ratio: 1.34

TTTTCACAT
switch fluorescence ratio: 0.996

TCGTGATTAC
switch fluorescence ratio: 1.58

TCGGGATCAC
switch fluorescence ratio: 1.04

ATCGCCGTTT
switch fluorescence ratio: 0.989

TGTAGGTACT
switch fluorescence ratio: 1.08

ACCTGCCATT
switch fluorescence ratio: 1.6

CGTAAGTTCG
switch fluorescence ratio: 1

ATTGAGAGCC
switch fluorescence ratio: 1.04

GGTCAGGTTT
switch fluorescence ratio: 1.02

AAGCGATAGT
switch fluorescence ratio: 1.15

AAAGTAAACA
switch fluorescence ratio: 0.977

GCTCGAATGT
switch fluorescence ratio: 1.01

TTAGCTACGG
switch fluorescence ratio: 1.08

TAAACGGGG
switch fluorescence ratio: 0.983

CCGACGGACA
switch fluorescence ratio: 3.73

ATTATTAAGA
switch fluorescence ratio: 0.978

CTCCTTCTTA
switch fluorescence ratio: 1.06

TTCGAGGGTG
switch fluorescence ratio: 1.04

AAGATGTAC
switch fluorescence ratio: 1.06

GTGTACGTTT
switch fluorescence ratio: 0.973

CAATGTGT
switch fluorescence ratio: 1.04

GGGTTGCTT
switch fluorescence ratio: 0.926

AATACTTGAC
switch fluorescence ratio: 1.22
